Variants at the background level are over-represented here.
B1: TPR 5TU (parent)
chain: GGAUCUUCUCGAUCUAACAAAAAAGACAAAUCUGCCACAAAGCUUGAGAGCAUCUUCGGAUGCAGAGGCGGCAGCCUUCGGUGGCGCGAUAGCGCCAACGUUCUCAACUAUGACACGCAAAACGCGUGCUCCGUUGAAUGGAGUUUAUCAUG

Variants of: B1
Test: polymerase ribozyme fitness, log enrichment relative to wild type (log ratio); higher = more active; in vitro selection for triplet polymerase activity
Outline: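 Each subunit of a heterodimeric triplet polymerase ribozyme was represented by a PCR-built, transcribed mutant library that underwent triplicate single-round in vitro selection with frozen incubation at −7 °C. Extended constructs were recovered by gel excision, streptavidin-bead capture and RT-PCR, and Illumina sequencing of input and output libraries kept genotypes with ≥10 input reads and ≥1 read per output. Fitness is the logarithm of genotype enrichment relative to wild-type enrichment, from inverse-variance-weighted replicate averages, with a logarithm base of 2.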

Point of comparison: U45G C87U, “polymerase ribozyme fitness (log ratio)” value -1.32. Against it:
- U45A G88C — lower, ≤ -4.2
- U45G U78G G94U A106G G126A G152U — lower, ≤ -4.2
- U45C U56C G65A C85A G86U G126A C131U — lower, ≤ -4.2
- A47C G141C U148G — lower, ≤ -4.2
- A47C G65A A66C G86A C105G — lower, ≤ -4.2
- G46A G50A — higher, -0.957
- A47C A52C C72U C85U U90G A91C U104G — lower, ≤ -4.2
- U45G A52G A66G C79G A110U U144A — lower, ≤ -4.2
- A47C C57A C105A G126A — lower, -3.51
- U45G C69A — lower, -1.95
- G46U G62A C76A C87U G88A C118U U134A — lower, ≤ -4.2
- U45C G84C G92A C96G — lower, ≤ -4.2
- U45G G58A G92C U111G — lower, ≤ -4.2
- G46C A52G G74A C76A A91C C114A A122U — lower, ≤ -4.2
- U45C A52G C57A G92C — lower, -2.64
- G46A U53G C93G G94U U127A — lower, ≤ -4.2
- A47C G58C C87A U104C C116U — lower, ≤ -4.2
- G46A C51G U56A G88U G141A — lower, ≤ -4.2
- U45G C85G U148G — lower, ≤ -4.2
- G46U A97U A106C — lower, ≤ -4.2
- U45C C54U A91U C96U G126U C132U — lower, ≤ -4.2
- U45G A110U C114U C125U G140A — lower, ≤ -4.2
- A47C U61A G83C A142C — lower, ≤ -4.2
- U45G G67U A89G U148G — lower, ≤ -4.2
- U45G G50A G62C G80A U90C C95A A106G — lower, ≤ -4.2
- A47C A73G C93U G124A G128U U139C A147C — lower, ≤ -4.2
- G46U A49C A60G A73G C87U A89U C149A — lower, ≤ -4.2
- G46A A52C U139G — lower, -3.91
- U45G G68A C93A G100U U135G — lower, ≤ -4.2
- A47C U78A C131U U145A — lower, ≤ -4.2
- U45C A64G C75G A91C U144G — lower, ≤ -4.2
- G46C G81A C96G A120G — lower, ≤ -4.2
- G46U U82C C99U U101C — lower, ≤ -4.2
- G46A A47C U53A C57U A107U G117A — lower, ≤ -4.2
- G46C U53A G58A G94C C95U G136U G141C — lower, ≤ -4.2
- A47G A52C G83A A138C — lower, ≤ -4.2
- G46U G58C A91U C96U — lower, ≤ -4.2
- A47C G50U C69G G71C C95G A115G C132A — lower, ≤ -4.2
- U45G C54U U55G C95A U111C G124U A137C U144G — lower, ≤ -4.2
- A47C G71C C95G U130C G141C C149A — lower, ≤ -4.2
- U45G G46C A119G — lower, ≤ -4.2
- G46A G70A U78A C85U A91U C118U G136C — lower, ≤ -4.2
- A47G A49U G50C C57U A107C A150C — lower, ≤ -4.2
- A47C A91G C96U G141A — lower, ≤ -4.2
- U45G G59C G74A C93U A122G C129G U146C — lower, ≤ -4.2
- U45G C87A — lower, ≤ -4.2
- G46C A64C G83U C108U A113U C116U C149A — lower, ≤ -4.2
- G46A G67A G86U — lower, ≤ -4.2
- A47C G65C C79G C87A — lower, ≤ -4.2
- U45G U56A C69A C96A C131U G136U — lower, -3.1
- A47C A64G A91U A119U — lower, ≤ -4.2
- U45C A66C G67C C93U A113U — lower, ≤ -4.2
- U45G C93A A113U C116U — lower, ≤ -4.2
- A47C A91U G124C A150C — lower, ≤ -4.2
- U45G A66C A122U — lower, ≤ -4.2
- U45A U56G A73G C96G C99G A107U G140A — lower, ≤ -4.2
- U45G G50C G81C C85A C118A — lower, ≤ -4.2
- U45G C57A — higher, 0.374
- U45G C54U G94A C96G C108U A122U G141A — lower, ≤ -4.2
- G46C C149U — lower, -2.58
- A47C C69A A89G G124A — lower, -3.28
- G46C C93U C96U — lower, -2.86
- G46C C76U U102C C116U A137C — lower, ≤ -4.2
- A47C C105A — higher, -1.02
- U45G C76A G86A G141C C149G — lower, ≤ -4.2
- G46U U77G C93G U104A — lower, ≤ -4.2
- A47C G58C G71U C87U G124U G143A — lower, ≤ -4.2
- U45A U77G G86U U104A C123A — lower, ≤ -4.2
- G46A G80C U82A C103G U144A — lower, ≤ -4.2
- G46C U55A A73G G92U G133U G141A — lower, ≤ -4.2
- A47C A73G G88U C105G A106G G133A U148G — lower, ≤ -4.2
- G46U U90C A110U A122G G126A — lower, ≤ -4.2
- A47C A49C C51U G83C C87U G88U U148A G152U — lower, ≤ -4.2
- U45G A64G G81U A91C G92A — lower, ≤ -4.2
- G46A G70U C85G — lower, ≤ -4.2
- U45A G84C C95A G143A — lower, ≤ -4.2
- G46A U135G — lower, -3.27
- G46C C93U — lower, -2.47
- A47C A73U G124C — lower, -3.78
- U45G A49U A60G U61G A107U U127G — lower, ≤ -4.2
- U45G A89G C93A U135A — lower, ≤ -4.2
- U45A U53A G58A G81A C96G — lower, ≤ -4.2
- G46A U53G — lower, -3.49

Reference: the RNAGym collection of RNA variant scans (doi:10.1073/pnas.2313332121)
